This is a noisy data set.
B1: Ydj1; a variant is named by its letters at X, in order (parent)
chain: MVKETKFYDILGVPVTATDVEIKKAYRKCALKYHPDKNPSEEAAEKFKEASAAYEILSDPEKRDIYDQFGEDGLSGAGGAGGFPGGGFGFGDDIFSQFFGAGGAQRPRGPQRGKDIKHEISASLEELYKGRTAKLALNKQILCKECEGRGGKKGAVKKCTSCNGQGIKFVTRQMGPMIQRFQTECDVCHGTGDIIDPKDRCKSCNGKKVENERKILEVHVEPGMKDGQRIVFKGEADQAPDVIPGDVVFIVSERPHKSFKRDGDDLVYEAEIDLLTAIAGGEFALEHVSGDWLKVGIVPGEVIAPGMRKVIEGKGMPIPKYGGYGNLIIKFTIKFPENHFTSEENLKKLEEILPPRIVPAIPKKATVDECVLADFDPAKYNRTRASRGGANYDSDEEEQGGEGVQCXXX

Variants of: B1
Test: enrichment factor, frequency at 37 °C / frequency at 25 °C (thermotolerance selection) (ratio); higher = more growth at 37 °C, higher likelihood of farnesylation
Settings: with Saccharomyces cerevisiae ydj1Δ (yWS304); selective temperature 37 °C; reference temperature 25 °C
Protocol: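 Pooled library of all 8,000 Ydj1-CXXX C-terminal motif variants (native CASQ replaced by C + three variable residues, one codon per amino acid) expressed from a CEN plasmid in S. cerevisiae ydj1Δ (yWS304). The library was grown in SC-Ura liquid to A600 ~2 (~8 generations) at permissive 25 °C or selective 37 °C. Reads from 8 and 7 replicates were pooled and variants counted by NGS. Enrichment factor = frequency at 37 °C / frequency at 25 °C, with a +1 correction; it reports Ydj1-dependent thermotolerance, used as a read-out of farnesylation by yeast FTase.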
FMQ showed an enrichment factor of 1.54. For FMR, the enrichment factor was 0.14. Work on FMW yielded an enrichment factor of 1.51. For FMS, the enrichment factor was 1.16. With FMN the enrichment factor was 2. FMP showed an enrichment factor of 1.86. FMY was tested, and the enrichment factor was 2.32. FMV showed an enrichment factor of 2.12. For FMM, the enrichment factor was 1.01. FMT showed an enrichment factor of 1.67. Variant IND has an enrichment factor of 1.05. In the case of INA, the enrichment factor is reported as 1.31. Variant INE has an enrichment factor of 0.736. INF showed an enrichment factor of 2.01. Variant INC has an enrichment factor of 0.763. Work on ING yielded an enrichment factor of 1.12. NNE showed an enrichment factor of 0.189. With NNA the enrichment factor was 1.52. NNC was tested, and the enrichment factor was 1.66. NNG was tested, and the enrichment factor was 0.573. Work on NNF yielded an enrichment factor of 1.97. Work on NND yielded an enrichment factor of 0.26. YMN gave an enrichment factor of 2.75. YMV was tested, and the enrichment factor was 1.99. YMY was tested, and the enrichment factor was 3.59. Work on YMW yielded an enrichment factor of 1.62. Variant YMT has an enrichment factor of 4.05. YMP was tested, and the enrichment factor was 0.675. Work on YML yielded an enrichment factor of 1.9. YMS gave an enrichment factor of 1.16. Work on YMQ yielded an enrichment factor of 1.78. Work on YMM yielded an enrichment factor of 1.16. YMR was tested, and the enrichment factor was 0.165. With SMN the enrichment factor was 1.93. With SMS the enrichment factor was 3.32. SMQ showed an enrichment factor of 2.59. Variant SMP has an enrichment factor of 0.139. SML showed an enrichment factor of 0.842. With SMR the enrichment factor was 0.195. With SMY the enrichment factor was 2.73. Variant SMV has an enrichment factor of 1.31. SMM was tested, and the enrichment factor was 1.78. SMW gave an enrichment factor of 1.06. With SMT the enrichment factor was 1.27. DNA showed an enrichment factor of 0.199. Variant DNG has an enrichment factor of 0.142. Variant DNE has an enrichment factor of 0.155. Work on DNC yielded an enrichment factor of 0.319. DNF showed an enrichment factor of 0.209. Work on DND yielded an enrichment factor of 0.182. With EMT the enrichment factor was 1.58. EMS showed an enrichment factor of 1.79. In the case of EMW, the enrichment factor is reported as 1.5. Variant EMM has an enrichment factor of 2. EMY was tested, and the enrichment factor was 1.59. With EMV the enrichment factor was 1.59. Work on EMR yielded an enrichment factor of 0.633. EMP was tested, and the enrichment factor was 0.119. EMQ gave an enrichment factor of 2.58. EMN gave an enrichment factor of 1.56. TMP showed an enrichment factor of 0.112. For TMQ, the enrichment factor was 2.8. With TML the enrichment factor was 0.831. In the case of TMR, the enrichment factor is reported as 0.558. TMS gave an enrichment factor of 2.6. Variant TMN has an enrichment factor of 1.95. TMT gave an enrichment factor of 2.07. With TMY the enrichment factor was 1.3. TMW was tested, and the enrichment factor was 0.684. In the case of TMV, the enrichment factor is reported as 1.84. For TMM, the enrichment factor was 0.745. MNG was tested, and the enrichment factor was 1.22. Work on MND yielded an enrichment factor of 0.209. Work on MNF yielded an enrichment factor of 1.73. In the case of MNE, the enrichment factor is reported as 0.191. With MNA the enrichment factor was 1.74. With MNC the enrichment factor was 0.704. Work on KNF yielded an enrichment factor of 1.72. Variant KNE has an enrichment factor of 0.167. Work on KNA yielded an enrichment factor of 1.47. KNC showed an enrichment factor of 1.44. For KNG, the enrichment factor was 0.67. KND was tested, and the enrichment factor was 0.923. For KMW, the enrichment factor was 1.82. KMY was tested, and the enrichment factor was 1.49. Work on KMP yielded an enrichment factor of 0.1. KML showed an enrichment factor of 2.25. With KMT the enrichment factor was 4.68. For KMQ, the enrichment factor was 2.74. For KMS, the enrichment factor was 3.1. KMM gave an enrichment factor of 1.22. KMV showed an enrichment factor of 2.63. With KMR the enrichment factor was 0.301. With KMN the enrichment factor was 3.43. Variant SNC has an enrichment factor of 1.01. SNG showed an enrichment factor of 1.41. SNA showed an enrichment factor of 1.48. For SNF, the enrichment factor was 2.47. SND was tested, and the enrichment factor was 0.222. Work on SNE yielded an enrichment factor of 0.205. In the case of LMP, the enrichment factor is reported as 0.129. LML was tested, and the enrichment factor was 1.59. With LMM the enrichment factor was 1.83. In the case of LMW, the enrichment factor is reported as 0.887. LMR was tested, and the enrichment factor was 0.456. Variant LMY has an enrichment factor of 3.38. Work on LMV yielded an enrichment factor of 1.95. For LMS, the enrichment factor was 2.16. Work on LMQ yielded an enrichment factor of 1.7. With LMT the enrichment factor was 2.9. LMN gave an enrichment factor of 1.58. For QMN, the enrichment factor was 2.73. QMS gave an enrichment factor of 2.66. QMP gave an enrichment factor of 0.163. Variant QMT has an enrichment factor of 2.79. QMY gave an enrichment factor of 2.12. For QMR, the enrichment factor was 0.69. QMM gave an enrichment factor of 1.61. Work on QMV yielded an enrichment factor of 3.64. Work on QMQ yielded an enrichment factor of 3.4. In the case of QML, the enrichment factor is reported as 1.16. QMW gave an enrichment factor of 1.16. Variant HMY has an enrichment factor of 2.24. For HMP, the enrichment factor was 1.06. For HMV, the enrichment factor was 2.8. For HMW, the enrichment factor was 1.82. For HMT, the enrichment factor was 2.45. Work on HMM yielded an enrichment factor of 0.386. HMS gave an enrichment factor of 5.38. With HMR the enrichment factor was 0.198. HMN showed an enrichment factor of 2.27. Variant HMQ has an enrichment factor of 3.57. HML showed an enrichment factor of 3.47. For IML, the enrichment factor was 1.43. Work on IMR yielded an enrichment factor of 0.629. Variant IMM has an enrichment factor of 1.04. IMY gave an enrichment factor of 3.3. With IMQ the enrichment factor was 1.94. IMV gave an enrichment factor of 2.45. IMW showed an enrichment factor of 1.75. IMT gave an enrichment factor of 1.53. With IMN the enrichment factor was 1.92. Variant IMP has an enrichment factor of 0.143. In the case of IMS, the enrichment factor is reported as 2.03. TND was tested, and the enrichment factor was 0.647. Work on TNE yielded an enrichment factor of 0.275. Variant TNC has an enrichment factor of 0.879. TNA gave an enrichment factor of 1.71. Work on TNG yielded an enrichment factor of 1.41. Variant TNF has an enrichment factor of 1.71. PNG was tested, and the enrichment factor was 0.945. PNC showed an enrichment factor of 1.81. PNA was tested, and the enrichment factor was 1.87. Variant PNF has an enrichment factor of 1.71. PND was tested, and the enrichment factor was 0.164. In the case of PNE, the enrichment factor is reported as 0.156. In the case of VMT, the enrichment factor is reported as 1.02. For VMV, the enrichment factor was 0.908. With VMQ the enrichment factor was 2.42. VMY was tested, and the enrichment factor was 1.24. With VML the enrichment factor was 0.701. VMR gave an enrichment factor of 1.77. VMP gave an enrichment factor of 0.199. For VMM, the enrichment factor was 0.732. For VMS, the enrichment factor was 0.61. Variant VMW has an enrichment factor of 3.09. Work on VMN yielded an enrichment factor of 1.93.

From the supplement of paper PMC10320760
